Laboratory results as given in PubChem BioAssay AID1460 (National Center for Advancing Translational Sciences (NCATS), 2008).
About 5,800 (2.1%) of roughly 270,000 compounds were called active. Inconclusive means that the source gave no clear call. Such entries were picked first, then a sample of the others. The call rests on the fitted dose curve; in most records, active means well fitted inhibition curve with a large enough effect; inconclusive means small, poorly fitted or top-dose-only effect; inactive means flat fitted curve, though single readings scatter. Potencies beside an inconclusive call are fits to weak or partial responses and may not hold up.

The molecules below were run against Microtubule-associated protein tau (Homo sapiens) (UniProt P10636) (assay: qHTS for Inhibitors of Tau Fibril Formation, Thioflavin T Binding). Conditions: recombinant tau K18 P301L (four-repeat tau fragment), heparin-induced fibrillization, ThT fluorescence; series mostly up to 57.4 µM.
Sequence of UniProt P10636 (P10636 whole entry, looked up, the tested form may be a part): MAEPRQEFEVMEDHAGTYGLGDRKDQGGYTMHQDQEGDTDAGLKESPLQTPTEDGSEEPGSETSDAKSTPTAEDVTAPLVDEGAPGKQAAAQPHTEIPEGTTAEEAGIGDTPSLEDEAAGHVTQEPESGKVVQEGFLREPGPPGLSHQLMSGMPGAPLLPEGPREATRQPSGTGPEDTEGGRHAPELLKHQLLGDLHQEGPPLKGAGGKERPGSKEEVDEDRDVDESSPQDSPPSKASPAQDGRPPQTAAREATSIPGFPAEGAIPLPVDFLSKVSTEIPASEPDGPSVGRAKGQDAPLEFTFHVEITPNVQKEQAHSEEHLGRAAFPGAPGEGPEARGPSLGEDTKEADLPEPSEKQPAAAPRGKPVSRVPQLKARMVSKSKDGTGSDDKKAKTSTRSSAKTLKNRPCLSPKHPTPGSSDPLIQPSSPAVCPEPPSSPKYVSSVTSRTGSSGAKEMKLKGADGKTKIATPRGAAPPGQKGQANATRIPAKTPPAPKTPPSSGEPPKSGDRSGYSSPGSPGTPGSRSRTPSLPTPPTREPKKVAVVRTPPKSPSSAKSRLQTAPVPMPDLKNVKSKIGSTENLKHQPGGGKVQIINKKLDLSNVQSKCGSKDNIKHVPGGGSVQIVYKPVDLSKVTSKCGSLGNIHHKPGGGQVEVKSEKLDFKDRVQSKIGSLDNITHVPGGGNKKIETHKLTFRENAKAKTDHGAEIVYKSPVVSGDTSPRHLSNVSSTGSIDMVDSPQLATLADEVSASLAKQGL
In short: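 Tau K18 P301L fragment (15 uM unlabeled plus 0.24 uM Alexa 594-labeled) in 100 mM sodium acetate pH 7 with compound, fibrillization induced by 20 uM heparin for 6 hr at 37 C. Thioflavin T (30 uM) added, fluorescence read after 1 hr (ex 450, em 510 nm).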
Further: nearly all actives have a fitted effect of over 55% in size.
On the % scale 0 is the no-effect control and ±100 the full control effect; potency means the concentration at half of the fitted maximal effect; tags describe the fitted curve by direction and shape.

| Structure (SMILES) | Potency | activity, negative = inhibition |
| --- | --- | --- |
| O=C(Nc1cccc(Cl)c1)OCc1ccccn1 | inconclusive: 39.8 µM [inhibitor, single point] |  |
| CN(C)CCNC(=O)/C(=C/c1ccc(-c2ccc(Cl)cc2Cl)o1)NC(=O)c1ccccc1 | inconclusive: 35.5 µM [inhibitor, partial curve] |  |
| COc1ccc(Br)cc1CNC(=O)CSc1n[nH]c(-c2ccccc2)n1 | inactive |  |
| Cc1nc2cc(NC(=O)C3COc4ccccc4O3)ccc2s1 (stereo unspecified) | inconclusive: 6.31 µM [inhibitor, full curve] |  |
| Cc1cccc(NC(=O)Cn2cnc3ccc(S(=O)(=O)N4CCC(C)CC4)cc3c2=O)n1 | inconclusive: 35.5 µM [inhibitor, partial curve] |  |
| c1ccc(Oc2nc(-c3ccccn3)nc3ccccc23)cc1 | inconclusive: 12.6 µM [inhibitor, partial curve] |  |
| COc1cc2[nH]c(=S)nc(NC3CCCC3)c2cc1OC | inconclusive: 17.8 µM [inhibitor, partial curve] |  |
| O=C(Nc1ccc2ccccc2c1)C(=O)C1C(=O)Nc2ccccc21 (stereo unspecified) | active: 3.98 µM |  |
| O=C(CCC1N=C2c3ccccc3N=C(SCc3cccc(Cl)c3)N2C1=O)NCCc1ccccc1 (stereo unspecified) | inconclusive: 12.6 µM [inhibitor, partial curve] |  |
| CCc1nc2sc3c(N4CCCCC4)ncnc3c2c2c1CCCC2 | inactive |  |
| Nc1nonc1C(=O)N/N=C/c1ccc(-c2cccc(C(=O)O)c2)o1 | inconclusive: 15.8 µM [inhibitor, partial curve] |  |
| O=C(COc1ncnc2cc([N+](=O)[O-])ccc12)NC(=O)NC1CCCCC1 | inconclusive: 14.1 µM [inhibitor, partial curve] |  |
| COc1ccc(NC(=O)CSc2cn(CCNC(=O)c3ccc(OC)cc3)c3ccccc23)cc1 | inconclusive: 2.82 µM [inhibitor, full curve] |  |
| Cc1cc(-c2cccs2)nc(-n2cccc2)n1 | inconclusive: 39.8 µM [inhibitor, single point] |  |
| CCOC(=O)C1CCN(C(=O)Nc2ccc(OCc3ccccc3)cc2)CC1 | inconclusive: 15.8 µM [inhibitor, partial curve] |  |
| CCOC(=O)C1=NO[C@@]2(C=C(Br)C3(OCCCO3)[C@H]3O[C@H]32)C1 |  | inactive: -11.9% [at 11.5 µM] |
| CCOc1ccc(-c2[nH]ncc2Oc2ccccc2OCC)c(O)c1 | inconclusive: 28.2 µM [inhibitor, partial curve, poor fit] |  |
| COc1ccccc1N=C(C)C1=C(O)CSC1=O | inconclusive: 39.8 µM [inhibitor, single point] |  |
| CCOC(=O)c1oc2ccccc2c1CN1CCN(c2ccccc2)CC1 | inconclusive: 28.2 µM [inhibitor, partial curve] |  |
| CCCN1C(=O)C(Cc2nc3ccccc3c(=O)n2CC)c2cc(Br)ccc21 (stereo unspecified) | inconclusive: 14.1 µM [inhibitor, partial curve] |  |
| Cc1sc(NC(=O)Nc2ccccc2)c(C(N)=O)c1C | inconclusive: 17.8 µM [inhibitor, partial curve] |  |
| O=C(O)c1cccc2c1C(=O)c1cccc3snc-2c13 | inconclusive: 8.91 µM [inhibitor, partial curve] |  |

| Structure (SMILES) | Potency | activity, negative = inhibition |
| --- | --- | --- |
| CCN(CC)C(=O)CC(c1cc(OC)c(OC)c(OC)c1)c1c(OC)cc(OC)c2c(-c3ccccc3)cc(=O)oc12 (stereo unspecified) | inconclusive: 28.2 µM [inhibitor, single point] |  |
| CC(=O)N1CCN(C(=O)CC2OC(=O)c3ccccc32)CC1 (stereo unspecified) | inconclusive: 31.6 µM [inhibitor, partial curve] |  |
| c1ccc(-c2nnc3sc(-c4ccncc4)nn23)cc1 | inactive |  |
| O=C(COc1ccc([N+](=O)[O-])cc1)Nc1ccccc1N1CCCC1 | inactive |  |
| COC(=O)[C@@H]1[C@@H](C)N(CCc2cc(OC)c(OC)c(OC)c2)C(=O)N[C@H]1c1ccccc1 |  | inactive: 11.4% [at 11.5 µM] |
| Cc1cccc(N2CCN(C(=O)c3ccc(NS(=O)(=O)c4c(C)noc4C)cc3)CC2)c1C | inconclusive: 25.1 µM [inhibitor, single point] |  |
| CCOC(=O)C1(Cc2ccc(Cl)cc2)CCN(Cc2nccn2CC)CC1 | inactive |  |
| Oc1c(CN2CCCCC2)cc(COCc2ccccc2)c2cccnc12 | inactive |  |
| O=C(/C=C/c1cccc([N+](=O)[O-])c1)NCCN1C(=O)S/C(=C\c2ccc(F)cc2)C1=O | inconclusive: 2 µM [inhibitor, full curve] |  |
| COc1ccc2c(c1)NC(c1ccc(Cl)cc1)=NC(c1cccs1)=N2 | inconclusive: 7.08 µM [inhibitor, partial curve] |  |
| Cc1cnc(NC(=O)CSc2nc3ccccc3s2)s1 | inconclusive: 20 µM [inhibitor, partial curve, poor fit] |  |
| O=C(CNCc1ccco1)Nc1ccc(N2CCCCCC2)cc1 | inconclusive: 14.1 µM [inhibitor, partial curve] |  |
| CCC(Nc1ccc(OC)cc1)C(=O)N/N=C/c1ccc([N+](=O)[O-])cc1 (stereo unspecified) | inconclusive: 17.8 µM [inhibitor, partial curve] |  |
| CC1=C(C(=O)Nc2ccccc2)C(c2ccc(O)cc2)n2nc(-c3ccc(Cl)cc3)nc2N1 (stereo unspecified) | inconclusive: 44.7 µM [activator, single point] |  |
| CCN(CC)C(=O)c1cc(-c2ccccc2OC)on1 | inactive |  |
| O=C(Cc1c[nH]c2ccccc12)OCCOC(=O)Cc1c[nH]c2ccccc12 | inconclusive: 28.2 µM [inhibitor, partial curve] |  |
| O=C(COC(=O)C12CC3CC(CC(C3)C1)C2)Nc1ncc(Cl)cc1Cl | inactive |  |
| O=C(CN1CCN(S(=O)(=O)c2ccc(F)cc2)CC1)c1ccc(O)c(O)c1 | inconclusive: 25.1 µM [inhibitor, partial curve] |  |
| COc1cccc(NC(=O)COc2ccc3c(c2)CCC3)c1 | inconclusive: 12.6 µM [inhibitor, partial curve] |  |
| COc1ccc2c(c1)NC(c1ccc(F)cc1)=NC(c1ccc(F)cc1)=N2 | inconclusive: 31.6 µM [inhibitor, single point] |  |
| CCN(CC)c1ccc(NC(=O)CN2C(=O)c3cccnc3Oc3ccccc32)c(C)c1 | inconclusive: 39.8 µM [inhibitor, single point] |  |
| COc1ccc(-c2nc(CS(=O)CC(=O)NCc3cccnc3)c(C)o2)cc1OC (stereo unspecified) | inconclusive: 22.4 µM [inhibitor, partial curve, poor fit] |  |

| Structure (SMILES) | Potency | activity, negative = inhibition |
| --- | --- | --- |
| COc1ccc(/C=N/N=C2/C(=O)Nc3ccccc32)cc1O | active: 10 µM |  |
| O=c1c(O)c(-c2ccc(O)cc2)oc2cc(O)ccc12 | inconclusive: 3.55 µM [inhibitor, full curve] |  |
| Cc1ccc(CNC(=O)CCNS(=O)(=O)c2ccc(C)cc2)cc1 | inactive |  |
| NC(=O)CSc1nc2scc(-c3ccco3)c2c(=O)n1-c1ccccc1 | inconclusive: 35.5 µM [inhibitor, partial curve] |  |
| CCn1c(CNc2nc(-c3ccccc3)cs2)nnc1SCC(=O)NCc1ccco1 | inconclusive: 14.1 µM [inhibitor, partial curve] |  |
| Cc1noc(NS(=O)(=O)c2ccc(N3Cc4ccccc4C3=O)cc2)c1C | inconclusive: 39.8 µM [inhibitor, single point] |  |
| CCOC(=O)c1ccc(NC(=S)Nc2cccc(N)n2)cc1 | inconclusive: 3.16 µM [inhibitor, partial curve] |  |
| CSc1ccc(S(=O)(=O)Nc2ccc3c(c2)OCCO3)cc1 | inactive |  |
| CS(=O)(=O)n1nc(OC(=O)c2cccs2)cc1N | inconclusive: 0.794 µM [inhibitor, partial curve] |  |
| N#Cc1c(-c2ccco2)cc(-c2cccnc2)nc1N | inconclusive: 28.2 µM [inhibitor, partial curve] |  |
| CC(OC(=O)/C=C/c1ccco1)C(=O)Nc1cccc([N+](=O)[O-])c1 (stereo unspecified) | inactive |  |
| O=C(Cn1nc(Cc2cccnc2)c2ccccc2c1=O)N1CCN(c2ccc(F)cc2)CC1 | inconclusive: 17.8 µM [inhibitor, single point] |  |
| Clc1ccc(C2=Nn3c(nnc3-c3n[nH]c4c3CCC4)SC2)cc1 | inconclusive: 11.2 µM [inhibitor, partial curve] |  |
| CCN(CC)C(=N)/C(C#N)=N/Nc1ccccc1 | inconclusive: 12.6 µM [inhibitor, partial curve, poor fit] |  |
| COc1cccc(-c2csc(N3CCN(Cc4ccccc4)CC3)n2)c1 | inconclusive: 11.2 µM [inhibitor, partial curve] |  |
| CC1=CC(C)(C)n2c(O)c(C3=NC(=S)NC3=O)c3cc(OC(=O)c4cccc5ccccc45)cc1c32 | inconclusive: 3.16 µM [inhibitor, full curve] |  |
| Cc1c(C(O)CN2CCN(Cc3ccc4c(c3)OCO4)CC2)c2ccccc2n1C (stereo unspecified) | inconclusive: 17.8 µM [inhibitor, partial curve] |  |
| O=C(CCC(=O)OCC(=O)c1ccc(-c2ccccc2)cc1)Nc1cccc(Cl)c1 | inconclusive: 39.8 µM [inhibitor, single point] |  |
| C=CCNc1ncnc2c1[nH]c1ccc(Cl)cc12 | inconclusive: 17.8 µM [inhibitor, single point] |  |
| CC(=O)c1cccc(N(C(=O)c2cnccn2)C(C(=O)NCc2ccccc2)c2ccco2)c1 (stereo unspecified) | inactive |  |
| CC(C)CCNC(=O)NC(=O)CSc1nnc(COc2ccccc2Cl)o1 | inconclusive: 17.8 µM [inhibitor, single point] |  |
| CCOC(=O)c1cc(C(=O)Nc2ccc(C)c(F)c2)nn1C | inactive |  |
